Article PMC4336329 (PLoS ONE, 2015)
Screen size: about 310,000 compounds; about 14,000 (4.5%) showed an effect of 50% or more. The effect is printed as a negative number. The list shows a part of the results.

molecular target: human ether-à-go-go-related gene (hERG) potassium channel (human, UniProt Q12809); experiment: primary screen, population patch clamp on CHO cells stably expressing hERG
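Note: peak tail current of the secondary pulse compared with the same well before compound.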

Chain of human ether-à-go-go-related gene (hERG) potassium channel (Q12809 whole entry, looked up): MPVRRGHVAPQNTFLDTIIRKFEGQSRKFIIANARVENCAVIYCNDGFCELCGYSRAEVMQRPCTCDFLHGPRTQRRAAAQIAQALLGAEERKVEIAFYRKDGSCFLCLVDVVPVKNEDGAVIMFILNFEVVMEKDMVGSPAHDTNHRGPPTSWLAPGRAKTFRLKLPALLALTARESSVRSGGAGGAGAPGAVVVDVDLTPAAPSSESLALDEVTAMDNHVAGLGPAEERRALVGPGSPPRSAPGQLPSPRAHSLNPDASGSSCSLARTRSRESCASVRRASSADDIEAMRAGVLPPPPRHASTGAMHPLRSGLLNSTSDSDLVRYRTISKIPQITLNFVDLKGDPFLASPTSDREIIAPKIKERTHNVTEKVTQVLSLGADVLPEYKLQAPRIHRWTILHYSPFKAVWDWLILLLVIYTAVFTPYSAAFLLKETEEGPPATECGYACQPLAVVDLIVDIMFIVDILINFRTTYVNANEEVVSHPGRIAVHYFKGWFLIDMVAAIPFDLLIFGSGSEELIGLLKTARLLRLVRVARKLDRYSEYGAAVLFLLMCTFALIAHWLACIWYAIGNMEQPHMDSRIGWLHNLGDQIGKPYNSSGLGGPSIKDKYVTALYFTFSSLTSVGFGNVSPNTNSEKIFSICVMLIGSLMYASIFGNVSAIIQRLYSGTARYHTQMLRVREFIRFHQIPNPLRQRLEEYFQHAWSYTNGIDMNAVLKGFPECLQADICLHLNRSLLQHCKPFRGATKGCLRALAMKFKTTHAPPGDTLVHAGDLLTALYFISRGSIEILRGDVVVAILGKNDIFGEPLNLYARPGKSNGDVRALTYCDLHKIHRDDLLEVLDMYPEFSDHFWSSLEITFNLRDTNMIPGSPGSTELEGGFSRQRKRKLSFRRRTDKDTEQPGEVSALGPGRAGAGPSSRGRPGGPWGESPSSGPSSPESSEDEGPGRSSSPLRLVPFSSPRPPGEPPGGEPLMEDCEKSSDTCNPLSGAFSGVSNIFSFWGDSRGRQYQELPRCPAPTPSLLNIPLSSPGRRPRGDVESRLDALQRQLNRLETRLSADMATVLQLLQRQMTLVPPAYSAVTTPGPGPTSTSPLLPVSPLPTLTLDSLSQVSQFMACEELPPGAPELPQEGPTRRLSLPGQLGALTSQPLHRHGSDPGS

SMILES	hERG current change (%, negative = inhibition) at 10uM
C=CCOc1ccc(C=Nc2cccc(Cl)c2)c(O)c1	4.22%
Cc1nnc(SC(=O)N2c3ccccc3Sc3ccccc32)s1	0.134%
O=C(c1ccccc1F)N1CCCc2ccccc21	9.8%
CCCc1cc(-n2cnc3ccccc32)n2c(nc3ccccc32)c1C#N	-50.1%
CCOc1ccc(/C=N/n2c(C)nnc2C)cc1OC	20.2%
Cc1cc(S(=O)(=O)NCc2ccncc2)c(C)cc1Br	-17.7%
CC1(C(=O)Nc2ccc3c(c2)OCCO3)CC1(Cl)Cl (stereo not shown)	10.1%
Cc1cccc(C)c1NC(=O)C(Cl)C(=O)c1ccccc1 (stereo not shown)	27.6%
COc1ccc(S(=O)(=O)N2CCCC(C(=O)N3CCCCCC3)C2)cc1 (stereo not shown)	-25.2%
CCN(CCn1cccn1)Cc1nc(-c2ccccc2)no1	-5.54%
O=C(CN1C(=O)NC2NC(=O)NC21)N/N=C/c1ccccc1O (stereo not shown)	30.6%
Cc1sc2nc(CN3CCOCC3)nc(N3CCOCC3)c2c1C.O=C(O)C(=O)O	-10.8%
CCOC(=O)C(C)Oc1cccc2c(=O)n(CC(=O)Nc3cccc(OC)c3)ccc12 (stereo not shown)	-19.8%
Cc1ccc(S(=O)CCNC(=O)Cc2ccc(Cl)cc2)cc1 (stereo not shown)	-8.83%
Cc1ccc(CN(C(=O)Cn2nnc3ccccc32)C(C(=O)NCc2ccco2)c2cccs2)cc1 (stereo not shown)	-23.1%
O=C(CN(Cc1ccccc1F)C(=O)c1ccco1)NCc1ccc(F)cc1	-50.7%
COC(=O)CNc1cc(S(=O)(=O)N2CCCCC2)ccc1Oc1ccc(C(=O)OC)cc1	7.36%
CN(NS(C)(=O)=O)c1ncc(C(F)(F)F)cc1Cl	9.11%
CCN(CC)S(=O)(=O)c1ccc(NC(=O)C2c3ccccc3Oc3ccccc32)cc1	3.37%
Cc1ccc(C(=O)N2CCN(c3ccc(NC(=O)Cc4ccccc4)cc3)CC2)cc1	-71.5%
COc1cccc(C(=O)NC2=NCCS2)c1OC	1.99%
Cc1ccc(-n2c(-c3ccccc3)cc(=O)nc2C)cc1	0.986%
Cc1cc(Cl)ccc1OC(C)C(=O)Nc1ccc([N+](=O)[O-])cn1 (stereo not shown)	-75.9%
O=C1CC(N2CCCc3ccccc32)C(=O)N1c1ccccc1 (stereo not shown)	7.81%
Cc1ccc(NC(=O)CSC(C)C(=O)NCCc2ccccn2)cc1 (stereo not shown)	14.3%
